Measurements published in the supplement of paper PMC12217912.
This is one part of the list. The full chains were built here from the parent and the listed change. Inactive controls read about 0.05.

B1: TEV protease; numbered along this chain (parent)
chain: MGESLFKGPRDYNPISSSICHLTNESDGHTTSLYGIGFGPFIITNKHLFRRNNGTLVVQSLHGVFKVKDTTTLQQHLVDGRDMIIIRMPKDFPPFPQKLKFREPQREERICLVTTNFQTKSMSSMVSDTSCTFPSGDGIFWKHWIQTKDGQCGSPLVSTRDGFIVGIHSASNFTNTNNYFTSVPKNFMELLTNQEAQQWVSGWRLNADSVLWGGHKVFMVKPEEPFQPVKEATQL

Variants of: B1
Test: raw area under fraction-flipped curve 0-4 h after induction (AUC4h, not background-subtracted), DNA-recorder readout of cleavage of the substrate (dimensionless); higher = more cleavage of the substrate by the protease variant
Conditions: temperature: 34 °C; time window: 0-4 h after rhamnose induction
Description: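 In vivo DNA recorder in E. coli TOP10(DE3) ΔrhaA at 34 °C. Each TEVp single-site mutant (parent TEVp 0) is paired with a single-site variant of the 7-mer TEVs (canonical ENLYFQ|S). The substrate sits between flexible linkers in a Bxb1-sfGFP-TEVs-SsrA fusion, so cleavage stabilises Bxb1 and speeds flipping of a recombination array, read by NGS. The value is the raw area under the fraction-flipped curve over 0-4 h after rhamnose induction (AUC4h), with ≥20 reads per time point. It is not background-subtracted; inactive controls average about 0.047.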
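Further: Bxb1 expression induced with 0.2% (w/v) L-rhamnose at OD600 near 0.5, cultures sampled hourly, flipped fraction per protease–substrate barcode pair counted by paired-end Illumina sequencing.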

Variant	area with substrate ENLYFES	area with substrate ENLYFFS	area with substrate ENLYFIS	area with substrate ENLYFKS	area with substrate ENLYFLS	area with substrate ENLYFPS	area with substrate ENLYFRS	area with substrate ENLYFVS	area with substrate ENLYFYS	area with substrate ENLYFWS
V165H	0.0457	0.0596	0.0533	0.0584	0.0421	0.0511	0.044	0.0397	0.0567	
I110A	0.0625		0.101							0.0457
V157K	0.0547	0.0535	0.0553			0.0381				0.041
F92W	0.0692	0.0829		0.0524		0.0552	0.0774			
M188H	0.0681	0.069	0.0349	0.0795		0.0588	0.0656			
D79C	0.0179	0.0539	0.0593				0.037		0.055	0.0521
S158Q	0.0584	0.0655	0.044			0.0468			0.0492	0.0625
Q74L	0.0645		0.042	0.064						
F226P	0.0723		0.0685	0.0593		0.0537	0.0596	0.0575		
G214T	0.0673		0.0529		0.0709					
I36G	0.0424		0.0365	0.0409		0.0466				0.0368
L211G	0.0672			0.0571		0.0672				
A170L	0.0646	0.0628	0.0505	0.0368			0.0511			
E107T	0.0379		0.0415			0.0603	0.0682			
S121N	0.0727	0.0607	0.0523	0.054	0.0564	0.0494	0.0578		0.0629	
F180Y	0.0687	0.078	0.0578			0.0028			0.0536	0.0519
M188Q	0.0664	0.0565	0.0557	0.0477		0.0567				
T72I	0.0614	0.0622			0.122		0.0908			
L235D	0.08			0.0931			0.0728		0.062	0.0632
N116G	0.0865	0.0702	0.0594	0.0706		0.0658	0.0563	0.0546	0.0642	0.0666
G162E	0.051	0.0673	0.0564			0.0658				0.0305
C131A	0.0804		0.069			0.0623				
G54P	0.0845	0.0624				0.0763		0.0546		0.0437

Variant	area with substrate ENLYFES	area with substrate ENLYFFS	area with substrate ENLYFIS	area with substrate ENLYFKS	area with substrate ENLYFLS	area with substrate ENLYFPS	area with substrate ENLYFRS	area with substrate ENLYFVS	area with substrate ENLYFYS	area with substrate ENLYFWS
I85E	0.0468	0.0624	0.0483				0.0438	0.0578		0.0543
L99A	0.0591	0.0689	0.0669			0.0534	0.0544			0.0607
R51T	0.0789	0.0687	0.0681			0.0612	0.0444			
F6C	0.0472	0.0614				0.0683				
C131G	0.0639	0.0756				0.0621		0.077		
G138I	0.057					0.0533	0.0385			
E107Q	0.0674	0.0699	0.0383	0.0745		0.0645	0.0521	0.0599		0.0573
S201F		0.0663		0.0665			0.0672			
W141L		0.0686			0.0276	0.0623	0.0722			
F117I		0.0734		0.0783		0.0527	0.0785	0.0419		0.0555
L190V		0.0951	0.051	0.0776	0.0644	0.0572			0.0801	
T181N		0.0591					0.0696	0.0625		
F173K		0.073								
E3K		0.0659				0.059	0.0541		0.0668	0.0658
F173P		0.0561	0.0552			0.0612			0.077	0.0603
L5S		0.042	0.0522	0.0596	0.0513		0.0601			
V210A		0.0817	0.0559	0.0493		0.0469				
D69A		0.0542	0.064					0.0528	0.0594	
E103N		0.0709	0.105	0.0514						
F163C		0.082		0.0401	0.0442	0.0539				
E231D		0.0567	0.0636	0.0705		0.0558			0.0617	
V78Q		0.0682	0.0515				0.0471			
G8H		0.0558			0.0541		0.0754	0.0702	0.0723	

Same assay, conditions: temperature: 34 °C; time window: 0-4 h after rhamnose induction

Variant	area with substrate ENLYFNS	area with substrate ENLYFHS	area with substrate ENLYFMS	area with substrate ENLYFTS	area with substrate ENLYFGS	area with substrate ENLYFSS
V157K	0.0499					
F92W	0.0773					
M188H		0.0603	0.0673	0.062		
D79C	0.0422	0.0602		0.0288		
S158Q	0.0475	0.0667	0.0331	0.0417		
Q74L		0.0547				
F226P	0.108	0.0572			0.0287	0.0646
I36G		0.0406				
L211G		0.0615	0.0588	0.081		
A170L				0.06		0.061
E107T	0.0607			0.0604		
S121N	0.0635	0.0523	0.0816	0.0505	0.0619	
F180Y		0.0636	0.0629			0.0557
M188Q			0.0709	0.0574		0.0675
T72I	0.0637		0.0709	0.0552		
L235D	0.0785	0.0525	0.0775			0.0613
N116G	0.0642			0.052		0.0587
G162E	0.0624		0.065	0.0557		
C131A			0.0787			0.0709
I85E			0.0451		0.037	0.0471
L99A	0.0581		0.0654	0.0593	0.0501	0.0615

Variant	area with substrate ENLYFNS	area with substrate ENLYFHS	area with substrate ENLYFMS	area with substrate ENLYFTS	area with substrate ENLYFGS	area with substrate ENLYFSS
R51T	0.0593	0.0376		0.0501		
F6C			0.0631			
C131G			0.0636			0.0686
G138I			0.0576		0.063	0.064
E107Q		0.059	0.0673	0.0602	0.0707	0.056
S201F			0.0449			
W141L	0.0654	0.0462	0.06	0.0487		
F117I			0.0728	0.0617	0.0482	0.0836
L190V	0.0501			0.0576		
T181N			0.0792			
F173K				0.0542		
E3K	0.0835	0.0633	0.0738	0.0565		
F173P	0.0424	0.0622		0.0534		
L5S		0.0501	0.0777			0.0592
D69A			0.0674	0.0483	0.0427	
E103N	0.0658		0.0598	0.0509		
F163C	0.0719					0.0675
E231D						0.0689
V78Q			0.0605			
G8H		0.104	0.0808		0.0696	
